Measurements: PubChem BioAssay AID651820 (National Center for Advancing Translational Sciences (NCATS), 2012)
The whole screen tested about 340,000 compounds, of which about 12,000 (3.5%) were called active. This list was built around the results that the source calls inconclusive (neither active nor inactive); the mix of calls is not that of the screen. Calls follow the shape of the dose curve; as a rule, active = well fitted inhibition curve with a large enough effect; inconclusive = small, poorly fitted or top-dose-only effect, or another doubt; inactive = no such curve, though single readings can be large or run the other way. Potencies of inconclusive entries are left out as doubtful fits.

Test: qHTS Assay for Inhibitors of Hepatitis C Virus (HCV)
Conditions: Huh7.5.1 HCVcc-Cre (HCVcc is cell-culture hepatitis C virus) infection, luciferase reporter, 44 h; activity change, negative = inhibition: at 41.8 µM (top of the series) unless noted
How it was run: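 Cells (1,000/well) were plated 4 h before compound, then infected with HCVcc-Cre virus (~0.5 moi). After 44 h further culture, infection was read as luciferase luminescence following a 15 min substrate incubation at room temperature.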
% is scaled to controls: 0 for no effect and ±100 for the full control effect; potency is read from the fitted curve at half-maximal effect; tags tell the direction and shape of the fitted curve.

Compound	Potency	activity change, negative = inhibition
O=C(OCc1cccc(Cl)c1)c1cc(S(=O)(=O)N2CCCCC2)ccc1N1CCOCC1	active: 11.2 µM	
O=S(=O)(Nc1cccc(-c2cn3cccnc3n2)c1)c1ccc(-c2ccccc2)cc1	active: 4.47 µM	
COc1ccc(C(=O)Nc2cccc(-c3ccc(N4CCOCC4)nn3)c2)cc1	inconclusive [inhibitor, partial curve]	
Cc1cccc(NC(=O)C2CCN(c3ncnc4c3nc3n4CCCCC3)CC2)n1	inconclusive [inhibitor, partial curve]	
Cc1cc(/C=N/NC(=O)C(=O)NCc2ccccn2)c(C)n1-c1cccc(Br)c1	inconclusive [inhibitor, full curve, poor fit]	
Cc1ccccc1C[n+]1cccc2ccccc21		inactive: 7.14%
Cc1ccc(NC(=S)/C(=C(\[O-])c2ccc(F)cc2)[n+]2ccccc2)cc1		inactive: -11.2%
O=C(O)c1cccc(NS(=O)(=O)c2ccc3nnn(O)c3c2)c1		inactive: 4.65%
CCCC(=Nc1ccccc1OC)C1=C(O)CC(c2ccccc2)CC1=O (configuration not stated)		inactive: 10.6%
CCN(C(=O)COC(=O)c1sccc1C)c1c(N)n(Cc2ccccc2)c(=O)[nH]c1=O		inactive: -7.3%
O=C(N/N=C/c1cc(Br)c(O)c(Br)c1)C1CC1		inactive: 19.4%
Fc1ccc(Nc2cccc3nccnc23)cc1	inconclusive [inhibitor, single point]	
CC(=O)c1cn(CC(=O)Nc2ccccc2C)c2ccccc12	inconclusive [inhibitor, full curve]	
CCN1CCc2nc(NC(=O)c3ccc4c(c3)OCCO4)sc2C1		inactive: -16.2%
O=C(NCC(c1ccco1)N1CCCCC1)c1cccc(S(=O)(=O)Nc2ccccc2Cl)c1 (configuration not stated)	inconclusive [inhibitor, full curve, poor fit]	
CCCCc1cc2ccccc2c(OCCN(C)C)n1	inconclusive [inhibitor, single point]	
COc1ccccc1N1CCN(S(=O)(=O)c2ccc(Cl)s2)CC1	inconclusive [inhibitor, single point]	
Cc1ccc(OCC(=O)N/N=C2\CC(=O)CC(C)(C)C2)c(Br)c1		inactive: 6.11%
CCOC(=O)C1(Cc2ccccc2C)CCCN(C(=O)c2ccc(OC)o2)C1 (configuration not stated)		inactive: -3.66%
CCS(=O)(=O)c1ccc2oc(Nc3ccc(C(C)C)cc3)nc2c1	inconclusive [inhibitor, single point]	
Cc1cc(NC(=O)c2cccc(COc3ccc(Br)cc3)c2)no1	inconclusive [inhibitor, partial curve]	
O=C(/C=C/c1ccncc1)c1ccc(NC(=O)c2ccccc2F)cc1	inconclusive [inhibitor, single point]	
